# Data taken from the supplement of paper PMC12217912.
# The list shows a part of the results. Sequences were assembled here from the parent chain. Values near 0.05 are background.
# B1: TEV protease; numbered along this chain (parent)
# chain: MGESLFKGPRDYNPISSSICHLTNESDGHTTSLYGIGFGPFIITNKHLFRRNNGTLVVQSLHGVFKVKDTTTLQQHLVDGRDMIIIRMPKDFPPFPQKLKFREPQREERICLVTTNFQTKSMSSMVSDTSCTFPSGDGIFWKHWIQTKDGQCGSPLVSTRDGFIVGIHSASNFTNTNNYFTSVPKNFMELLTNQEAQQWVSGWRLNADSVLWGGHKVFMVKPEEPFQPVKEATQL
# Variants of: B1
# Assay: raw area under fraction-flipped curve 0-4 h after induction (AUC4h, not background-subtracted), DNA-recorder readout of cleavage of the substrate (dimensionless); higher = more cleavage of the substrate by the protease variant
# Conditions: temperature: 34 °C; time window: 0-4 h after rhamnose induction
# Procedure: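 In vivo DNA recorder in E. coli TOP10(DE3) ΔrhaA at 34 °C. Each TEVp single-site mutant (parent TEVp 0) is paired with a single-site variant of the 7-mer TEVs (canonical ENLYFQ|S). The substrate sits between flexible linkers in a Bxb1-sfGFP-TEVs-SsrA fusion, so cleavage stabilises Bxb1 and speeds flipping of a recombination array, read by NGS. The value is the raw area under the fraction-flipped curve over 0-4 h after rhamnose induction (AUC4h), with ≥20 reads per time point. It is not background-subtracted; inactive controls average about 0.047.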
# 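Also: Bxb1 expression induced with 0.2% (w/v) L-rhamnose at OD600 near 0.5, cultures sampled hourly, flipped fraction per protease–substrate barcode pair counted by paired-end Illumina sequencing.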
Variant,area with substrate EALYFQS,area with substrate ECLYFQS,area with substrate EDLYFQS,area with substrate EELYFQS,area with substrate EGLYFQS,area with substrate EHLYFQS,area with substrate EILYFQS,area with substrate ELLYFQS,area with substrate EMLYFQS,area with substrate EQLYFQS,area with substrate ERLYFQS,area with substrate ESLYFQS,area with substrate EVLYFQS,area with substrate EWLYFQS,area with substrate EYLYFQS,area with substrate EFLYFQS,area with substrate EKLYFQS,area with substrate EPLYFQS,area with substrate ETLYFQS
V64N,0.148,0.0972,0.122,0.114,0.0784,0.131,0.0863,0.0957,0.0973,0.123,0.0725,0.101,0.115,0.0919,0.0794,–,–,–,–
F65E,0.108,0.0799,0.116,0.104,–,0.075,0.0768,0.0776,–,–,0.101,0.0922,0.0823,0.104,0.111,0.0795,0.0895,0.107,–
F65R,0.096,0.085,0.124,0.102,0.108,0.0668,0.0891,–,0.0899,0.0866,0.106,0.143,0.0974,–,–,0.1,0.119,0.119,0.0889
K66F,0.114,0.1,0.147,–,–,–,0.0907,0.102,0.0928,–,0.0934,0.104,0.102,0.0961,–,0.111,–,–,0.112
K66R,0.135,0.0819,0.13,0.138,–,–,–,–,–,0.148,0.0956,0.135,0.121,0.0994,0.113,0.102,–,–,0.105
V67R,0.0608,0.0526,0.0688,–,0.0764,0.0701,0.003,0.0615,0.0548,–,0.0683,–,0.0727,0.0643,–,–,0.0773,–,–
D69H,0.12,0.0997,0.121,0.0746,0.0967,0.0816,0.0699,0.0811,0.105,0.0962,0.0989,0.107,0.091,–,–,0.0614,0.113,0.101,–
D69Q,0.0742,0.103,0.123,0.123,–,–,0.078,0.0753,–,0.104,0.0925,0.0887,0.0587,0.0651,0.0895,–,0.0975,0.141,–
T71A,0.127,0.0997,0.117,0.123,0.0806,0.109,0.0853,–,0.0931,0.0867,0.0718,0.0832,0.105,0.066,–,0.0883,0.103,0.086,0.118
T71F,0.0991,0.0918,0.0966,0.116,0.062,–,0.075,0.0701,0.0909,0.103,0.0623,0.0818,0.0842,–,–,0.0744,0.0825,–,0.0936
L73G,0.044,0.0359,0.0511,0.0565,0.0519,–,0.051,0.053,–,0.0613,0.0494,0.0568,0.0433,0.0521,–,0.0336,0.0327,0.0302,–
Q74D,0.111,0.0925,–,0.125,0.0883,0.104,0.0974,0.0859,–,0.105,0.0991,0.106,0.105,–,0.131,–,0.103,–,0.0845
